Data: PubChem BioAssay AID1745853 (National Center for Advancing Translational Sciences (NCATS), 2022)
Some of the results follow. Further columns of the screen follow, without active or inactive calls. Peptide text beside a SMILES is read from it. * marks the point of attachment. Cbz = O=C(OCc1ccccc1)*; CH2Cl = ClC*

Experiments:
Experiment in all cases: Primary Screen for Target Class Profiling of Small Molecule Inhibitors of Methyltransferases
[1] = target: Glycine N-methyltransferase (Homo sapiens) (UniProt Q14749); settings: purified enzyme, MTase-Glo SAH luminescence; measured here: GNMT inhibition; at 40 µM; stronger effect = lower value
In short: (§1)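 Each enzyme was assayed with SAM and its substrate. SAH formation detected by MTase-Glo luminescence; single-point 40 uM screen[…].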

[2] = target: Guanidinoacetate N-methyltransferase (Homo sapiens) (UniProt Q14353); settings: purified enzyme, MTase-Glo SAH luminescence; measured here: GAMT inhibition; at 40 µM; stronger effect = lower value
In short: as §1

[3] = target: Histamine N-methyltransferase (Homo sapiens) (UniProt P50135); settings: purified enzyme, MTase-Glo SAH luminescence; measured here: HNMT inhibition; at 40 µM; stronger effect = lower value
In short: as §1

[4] = target: Nicotinamide N-methyltransferase (Homo sapiens) (UniProt P40261); settings: purified enzyme, MTase-Glo SAH luminescence; measured here: NNMT inhibition; at 40 µM; stronger effect = lower value
In short: as §1

[5] = target: Phenylethanolamine N-methyltransferase (Homo sapiens) (UniProt P11086); settings: purified enzyme, MTase-Glo SAH luminescence; measured here: PNMT inhibition; at 40 µM; stronger effect = lower value
In short: as §1
On the % scale 0 is the no-effect control and ±100 the full control effect.

Structure (SMILES)	activity change, negative = inhibition [1] [%]	activity change, negative = inhibition [2] [%]	activity change, negative = inhibition [3] [%]	activity change, negative = inhibition [4] [%]	activity change, negative = inhibition [5] [%]
CC(C)CCn1c(=O)c2ccc(C(=O)NC(C)C)cc2n2c(=O)n(Cc3ccc(Cl)cc3)nc12	4.31	0	6.16	-3.08	2.95
C=C1CC[C@@H]2C(C)(C)CCC[C@@]2(C)[C@@H]1CC/C(=C/C(=O)OC)COC(C)=O	-1.68	-14.3	8.75	-19.9	-11.7
Cc1cnc(-c2ccccc2)n1CC1CCN(S(=O)(=O)Cc2ccccc2F)CC1	-5.54	-0.835	-7.93	-10.6	-16.5
CC1(C(=O)NC2CCCCCCC2)Cn2c(ccc2-c2ccccc2)C(=O)N1CCc1ccccc1 (stereo not given)	-9.01	-5.19	-4.63	-4.6	-1.12
O=C(C1CCCCC1)N1CC(=O)N2CCc3ccccc3C2C1 (stereo not given)	1.25	13.3	7.06	-2.65	6.85
CC/C=C\C[C@H]1C(=O)C=C[C@@H]1CCCCCCCC(=O)O	-8.05	-6.8	5.38	-20.3	2.08
Cn1nc(C(=O)NC2CC2)c2c1CN(C(=O)Cc1cccc(F)c1)C2	-1.59	-7.45	-0.333	-9.28	-3.46
C[C@@H]1CCO[C@H]2Cn3cc(C(=O)NCc4ccc(F)cc4F)c(=O)c(O)c3C(=O)N12	-7.39	-10.5	-2.31	-25.1	-6.87
Cc1noc(C)c1C(=O)N1CCOc2ccc(CCC(=O)NCC3CC3)cc2C1	2.02	0.912	2.51	-4.12	-0.276
COCC1CN(C2CCC2)CC12CCN(C(=O)NCCc1ccccc1)CC2 (stereo not given)	-5.28	-5.59	-4.41	-11.1	13.6
COc1c(C)c(OCC(O)C(C)(C)O)cc2c1COC2=O (stereo not given)	0	-0.329	-4.08	-12.3	-2.35
C[C@H](C/C=C/C(C)(C)O)[C@H]1CC[C@@]2(C)[C@@H]3[C@@H](O[C@@H]4O[C@H](CO)[C@@H](O)[C@H](O)[C@H]4O)C=C4C(CC[C@H](O)C4(C)C)[C@]3(C=O)CC[C@]12C (stereo not given in full)	0	13	10.6	1.15	3.54
CNc1nc2c(c(C(=O)N3CCCC3)n1)CN(CC1(O)CCNC1)CC2 (stereo not given)	-0.396	-1.41	0.011	-0.695	-0.622
COc1ccc(-c2cc3n(n2)CC(C)(C(=O)NCc2ccccc2OC)N(c2cc(C)ccc2OC)C3=O)cc1 (stereo not given)	1.53	5.13	7.04	-0.033	-0.061
O=S(=O)(Nc1ccc(F)cc1)c1ccc2[nH]c3c(c2c1)CCCC3	-5.36	0	1.18	-9.45	0.853
Cc1ccccc1CNC(=O)C(C)n1ccc2cc(S(=O)(=O)N3CCCC3)ccc21 (stereo not given)	-3.74	-3.07	-1.46	-8.48	-5.1
COc1ccccc1CNC(=O)C1c2c(n(C)c3ccccc23)SCC(=O)N1c1ccc(C(C)C)cc1 (stereo not given)	6.33	3.3	-1.03	5.1	5.82
CC(C)C[C@H](NC(=O)CNC(=O)OCc1ccccc1)C(=O)N[C@@H](Cc1ccccc1)C(=O)CCl (Cbz-Gly-Leu-Phe-CH2Cl)	-5.09	7.89	4.67	-6.15	-0.295
CC(CNC(=O)CCc1nnc2n(Cc3ccccc3)c(=O)c3ccccc3n12)c1ccccc1 (stereo not given)	-12.5	6.61	-1.44	-11.4	-10.2
Cc1c(O)cc2c(c1O)COC1(O)CCCOC21 (stereo not given)	3.31	5.45	6.12	-6.91	2.5

Structure (SMILES)	activity change, negative = inhibition [1] [%]	activity change, negative = inhibition [2] [%]	activity change, negative = inhibition [3] [%]	activity change, negative = inhibition [4] [%]	activity change, negative = inhibition [5] [%]
CC(C)Cn1c(=O)c2cc(F)ccc2n2c(SCC(=O)NC3CCCCC3)nnc12	5.02	1.81	11.6	9.68	8.83
Cc1c(Cl)cccc1NC(=O)CN(C)S(=O)(=O)c1ccc2[nH]c3c(c2c1)CCCC3	-2.19	0.759	-3.66	0.594	0.864
O=C(CCc1nc2ccccc2s1)N[C@@H]1CCOC[C@H]1OCCO	-3.06	-2.26	-0.755	-4.1	0.708
CC1=C[C@@H](CNC2CCOCC2)[C@H](C(C)C)C[C@H]1Cc1nc2ccc(F)cc2[nH]1	0.153	2.74	-49.9	-16	11.1
CCCCN1C(=O)c2cc(C(=O)Nc3cc(C)cc(C)c3)nn2CC1(C)C(=O)NC1CCCC1 (stereo not given)	7.71	3.63	-38.4	2.09	5.36
COc1ccc(C[C@H]2COC(=O)[C@@H]2Cc2ccc(O[C@@H]3O[C@H](CO)[C@@H](O)[C@H](O)[C@H]3O)c(OC)c2)cc1OC	1.49	-1.09	6.33	-10.7	-6.06
O=C(Nc1ccc(F)cc1)N1Cc2c(sc3c2CCCC3)-n2cccc2C1c1cccc(F)c1 (stereo not given)	-0.804	3.05	3.09	-1.98	1.81
Cc1nc(N2CCN(C(=O)C(C)Oc3ccccc3)CC2)cc(C(F)(F)F)n1 (stereo not given)	-3.13	-0.505	-1.27	-9.11	8.83
C(=C\c1ccccc1)/CN1CCN(C(c2ccccc2)c2ccccc2)CC1	-7.58	1.15	-0.866	-11.1	2.2
CCc1cc2c(cc3n2CC(C)(C(=O)NC2CCCCCC2)N(CCN2CCCC2)C3=O)s1 (stereo not given)	3.95	2.3	-4.04	0.864	-0.899
CCCn1c(=O)c2cc(F)ccc2n2c(SCC(=O)NCc3ccc(Cl)cc3)nnc12	-1.98	0	8.55	-0.441	3.41
Cc1n[nH]c(C)c1CNC(=O)C1CCN(c2cn[nH]c(=O)c2)C1 (stereo not given)	-0.662	0.541	1.09	-2.38	1.46
COc1ccc2c(c1)c(CC(=O)O)c(C)n2C(=O)c1ccc(Cl)cc1	-10.1	4.01	-0.43	-9.76	-1.58
CCCN1C(=O)c2cc3occc3n2CC1(C)C(=O)NC1CCC(C)CC1 (stereo not given)	-1.66	2.97	-2.96	5.38	0.096
CC(C)Cn1c(=O)c2ccc(C(=O)NC(C)C)cc2n2c(SCc3ccccc3)nnc12	5	0	8.02	3.87	5.26
Cc1ccc(-c2noc(-c3cccc(S(=O)(=O)N4CCN(c5cc(C)ccc5C)CC4)c3)n2)cc1	-8.05	-3.8	-12.6	-13	-10.8
Nc1nc2ccc(OC(F)(F)F)cc2s1	4.67	10.7	9.28	-8.16	-5.58
CCCN1CCC(c2cccc(S(C)(=O)=O)c2)CC1	0.107	-2.99	4.37	-12.2	0.6
Cc1cc(C)cc(N2C(=O)c3cc(-c4cccs4)nn3CC2(C)C(=O)NC2CCCCC2)c1 (stereo not given)	-1.03	0	-0.634	7.6	0.2
CC1CCCC(NC(=O)C2(C)Cn3c(nc4ccccc43)C(=O)N2Cc2ccc3c(c2)OCO3)C1C (stereo not given)	4.16	0	6.21	-4.95	1.96

Structure (SMILES)	activity change, negative = inhibition [1] [%]	activity change, negative = inhibition [2] [%]	activity change, negative = inhibition [3] [%]	activity change, negative = inhibition [4] [%]	activity change, negative = inhibition [5] [%]
CC(C)CCNC(=O)C1c2c(n(C)c3ccccc23)SCC(=O)N1Cc1ccc(Cl)cc1 (stereo not given)	3.92	-3.64	2.3	-4.63	1.04
CCOC(=O)c1cc2n(n1)CC(C)(C(=O)NCCC(C)C)N(c1cc(C)cc(C)c1)C2=O (stereo not given)	0.04	0	1.89	0.111	1.23
CC1(C(=O)NC2CCCCCC2)Cn2c(cc3occc32)C(=O)N1Cc1cccc(Br)c1 (stereo not given)	-3.74	1.2	-1.6	-15.3	-3.8
CCCN1C(=O)c2cc3ccc(OC)cc3n2CC1(C)C(=O)NC1CCCC1 (stereo not given)	1.14	0.451	7.84	6.98	0.784
NCCc1noc(Cc2ccccc2)n1	2.17	0.085	2.24	0.934	3.4
CC1(C)O[C@@]2(C)CC[C@@H]1C[C@@H]2OC1OC(CO)C(O)C(O)C1O (stereo not given in full)	-0.321	-4.68	1.99	-15.7	2.37
CCc1ccccc1NC(=O)Cn1nc2n(CC(C)C)c(=O)c3ccc(C(=O)NCC(C)C)cc3n2c1=O	7.68	0.496	11.5	5.04	6.64
Cn1c(Cn2cccn2)nnc1C1CC(Nc2ncnc3sccc23)C1 (stereo not given)	-7.21	-5.72	-2.81	-19.4	-5.84
CC(C)CCNC(=O)N1c2ccccc2CC1c1noc(C2CCOCC2)n1 (stereo not given)	-2.32	-2.93	-0.709	-5.01	0.261
COc1ncccc1C(=O)N1CCc2onc(-c3cccc4ccccc34)c2C1	-9.96	-1.37	-0.516	-12.6	-3.42
CC(C)NC(=O)c1ccc2c(=O)n(Cc3ccccc3)c3nn(Cc4ccccc4)c(=O)n3c2c1	8.21	0.274	9.57	8.89	9.63
O=C(O)c1cc(=O)cc(C(=O)O)[nH]1	-3.6	9.15	2.04	-0.502	8.97
C=C(C)[C@@H]1CC[C@]2(C(=O)O)CC[C@]3(C)C(CCC4[C@@]5(C)C[C@@H](O)[C@H](O)C(C)(C)C5CC[C@]43C)C12 (stereo not given in full)	-12.8	4.44	3.69	-13	1.24
CC(C)OCCCNC(=O)C1c2c(n(C)c3ccccc23)SCC(=O)N1c1ccc(F)cc1 (stereo not given)	1.73	0	-0.892	2.16	3.85
CCCn1c(=O)c2ccccc2n2c(SCC(=O)NC(C)C)nnc12	2.04	0.471	5.7	2.09	1.29
CNC(=O)c1cc(Oc2ccc(NC(=O)Nc3cc(C(C)(C)C)nn3-c3ccc4ncccc4c3)c(F)c2)ccn1	5.94	6.87	12.2	-27.2	5.2
CCCn1c(=O)c2ccc(C(=O)NC(C)C)cc2n2c(SCc3ccccc3C)nnc12	3.55	0	4.09	1.99	0.912
Cc1ccc(C)c(N2C(=O)c3cc4ccccc4n3CC2(C)C(=O)NC2CCCC2)c1 (stereo not given)	-0.181	0.486	-3.62	1.82	-4
C/C1=C\C[C@H](O[C@@H]2O[C@H](CO)[C@@H](O)[C@H](O)[C@H]2O)/C(C)=C/[C@H]2OC(=O)[C@H](C)[C@@H]2CC1	3.96	0.709	9.16	-7.76	-1.5
